# Experimental data as given in publication PMC6760808.
# Amino acid sequences for entries named in this document (tags omitted).
# UniProt Q7Z494: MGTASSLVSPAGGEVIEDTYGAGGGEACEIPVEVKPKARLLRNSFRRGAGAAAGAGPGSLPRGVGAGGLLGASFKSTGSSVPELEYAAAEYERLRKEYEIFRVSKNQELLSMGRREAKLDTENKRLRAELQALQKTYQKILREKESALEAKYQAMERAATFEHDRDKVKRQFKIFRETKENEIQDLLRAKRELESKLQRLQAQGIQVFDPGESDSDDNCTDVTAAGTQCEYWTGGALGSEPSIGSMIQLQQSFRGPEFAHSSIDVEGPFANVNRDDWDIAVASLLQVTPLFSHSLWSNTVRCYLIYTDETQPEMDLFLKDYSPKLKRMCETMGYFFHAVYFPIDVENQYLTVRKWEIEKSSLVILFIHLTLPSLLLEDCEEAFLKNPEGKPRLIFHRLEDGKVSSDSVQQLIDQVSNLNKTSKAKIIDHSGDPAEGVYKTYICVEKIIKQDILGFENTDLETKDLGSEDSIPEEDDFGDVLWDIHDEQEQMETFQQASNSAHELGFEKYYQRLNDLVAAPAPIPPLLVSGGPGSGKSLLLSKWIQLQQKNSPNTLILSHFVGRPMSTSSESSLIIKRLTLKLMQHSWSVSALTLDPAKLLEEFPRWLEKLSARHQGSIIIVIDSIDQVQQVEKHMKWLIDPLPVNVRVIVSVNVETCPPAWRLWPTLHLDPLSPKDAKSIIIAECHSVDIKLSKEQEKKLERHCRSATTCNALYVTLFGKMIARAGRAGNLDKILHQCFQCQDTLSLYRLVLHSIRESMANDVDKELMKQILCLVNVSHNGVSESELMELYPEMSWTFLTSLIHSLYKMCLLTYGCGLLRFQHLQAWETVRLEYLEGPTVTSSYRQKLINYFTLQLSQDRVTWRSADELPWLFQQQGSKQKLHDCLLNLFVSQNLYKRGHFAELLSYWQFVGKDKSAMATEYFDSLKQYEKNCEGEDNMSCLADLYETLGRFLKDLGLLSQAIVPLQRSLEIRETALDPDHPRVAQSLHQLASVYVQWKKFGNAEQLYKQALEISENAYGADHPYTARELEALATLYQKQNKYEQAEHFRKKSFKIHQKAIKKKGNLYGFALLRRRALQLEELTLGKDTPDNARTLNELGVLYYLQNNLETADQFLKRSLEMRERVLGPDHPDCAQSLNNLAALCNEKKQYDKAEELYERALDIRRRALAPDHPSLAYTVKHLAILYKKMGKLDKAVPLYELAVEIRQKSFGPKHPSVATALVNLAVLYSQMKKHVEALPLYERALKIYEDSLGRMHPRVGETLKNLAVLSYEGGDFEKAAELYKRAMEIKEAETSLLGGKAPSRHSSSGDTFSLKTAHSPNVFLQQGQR
# These are yes or no findings as the source states them, for the method shown. Some binding calls cover weakened binding; strength is not graded here.
# T1: Nup133 (human) (UniProt Q8WUM0)
# T1 sequence: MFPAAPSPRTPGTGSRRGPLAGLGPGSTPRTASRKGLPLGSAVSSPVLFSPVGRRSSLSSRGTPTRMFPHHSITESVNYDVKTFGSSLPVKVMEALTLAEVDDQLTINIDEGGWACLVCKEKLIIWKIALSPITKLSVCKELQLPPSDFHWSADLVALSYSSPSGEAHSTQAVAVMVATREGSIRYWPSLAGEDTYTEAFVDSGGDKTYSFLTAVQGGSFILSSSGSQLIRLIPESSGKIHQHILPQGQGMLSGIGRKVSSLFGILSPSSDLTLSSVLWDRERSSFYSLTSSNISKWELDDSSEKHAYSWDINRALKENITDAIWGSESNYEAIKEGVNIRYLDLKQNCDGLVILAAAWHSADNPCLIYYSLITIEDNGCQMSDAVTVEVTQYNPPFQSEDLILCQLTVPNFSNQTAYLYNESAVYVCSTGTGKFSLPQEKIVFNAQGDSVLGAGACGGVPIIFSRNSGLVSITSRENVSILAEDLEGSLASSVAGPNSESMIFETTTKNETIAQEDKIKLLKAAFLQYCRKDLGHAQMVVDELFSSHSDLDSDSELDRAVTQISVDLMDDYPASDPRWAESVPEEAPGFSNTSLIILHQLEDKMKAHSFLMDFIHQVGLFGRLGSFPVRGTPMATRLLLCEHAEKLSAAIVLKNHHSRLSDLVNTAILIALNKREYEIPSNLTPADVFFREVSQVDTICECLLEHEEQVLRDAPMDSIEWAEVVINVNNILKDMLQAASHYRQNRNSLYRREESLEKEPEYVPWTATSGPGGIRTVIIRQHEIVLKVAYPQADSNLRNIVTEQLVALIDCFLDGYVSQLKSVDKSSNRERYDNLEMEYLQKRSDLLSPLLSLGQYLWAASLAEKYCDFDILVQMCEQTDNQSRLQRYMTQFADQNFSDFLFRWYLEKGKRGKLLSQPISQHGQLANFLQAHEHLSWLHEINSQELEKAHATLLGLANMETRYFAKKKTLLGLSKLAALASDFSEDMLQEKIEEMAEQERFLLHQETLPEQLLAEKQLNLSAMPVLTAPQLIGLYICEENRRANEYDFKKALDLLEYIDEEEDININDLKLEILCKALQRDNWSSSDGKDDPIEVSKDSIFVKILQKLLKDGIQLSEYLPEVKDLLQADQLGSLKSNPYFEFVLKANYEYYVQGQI
# T2: Nup43 (human) (UniProt Q8NFH3)
# T2 sequence: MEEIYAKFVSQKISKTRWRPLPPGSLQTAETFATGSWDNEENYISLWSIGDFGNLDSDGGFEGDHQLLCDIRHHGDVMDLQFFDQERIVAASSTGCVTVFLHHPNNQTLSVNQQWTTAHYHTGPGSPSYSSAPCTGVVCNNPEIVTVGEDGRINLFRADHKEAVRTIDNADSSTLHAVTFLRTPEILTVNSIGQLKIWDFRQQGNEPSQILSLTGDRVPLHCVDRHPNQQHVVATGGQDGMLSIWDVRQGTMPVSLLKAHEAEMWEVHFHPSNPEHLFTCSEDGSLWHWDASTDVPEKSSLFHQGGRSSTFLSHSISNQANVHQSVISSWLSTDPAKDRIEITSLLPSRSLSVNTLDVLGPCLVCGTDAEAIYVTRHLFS
# T3: Nup155 (human) (UniProt O75694)
# T3 sequence: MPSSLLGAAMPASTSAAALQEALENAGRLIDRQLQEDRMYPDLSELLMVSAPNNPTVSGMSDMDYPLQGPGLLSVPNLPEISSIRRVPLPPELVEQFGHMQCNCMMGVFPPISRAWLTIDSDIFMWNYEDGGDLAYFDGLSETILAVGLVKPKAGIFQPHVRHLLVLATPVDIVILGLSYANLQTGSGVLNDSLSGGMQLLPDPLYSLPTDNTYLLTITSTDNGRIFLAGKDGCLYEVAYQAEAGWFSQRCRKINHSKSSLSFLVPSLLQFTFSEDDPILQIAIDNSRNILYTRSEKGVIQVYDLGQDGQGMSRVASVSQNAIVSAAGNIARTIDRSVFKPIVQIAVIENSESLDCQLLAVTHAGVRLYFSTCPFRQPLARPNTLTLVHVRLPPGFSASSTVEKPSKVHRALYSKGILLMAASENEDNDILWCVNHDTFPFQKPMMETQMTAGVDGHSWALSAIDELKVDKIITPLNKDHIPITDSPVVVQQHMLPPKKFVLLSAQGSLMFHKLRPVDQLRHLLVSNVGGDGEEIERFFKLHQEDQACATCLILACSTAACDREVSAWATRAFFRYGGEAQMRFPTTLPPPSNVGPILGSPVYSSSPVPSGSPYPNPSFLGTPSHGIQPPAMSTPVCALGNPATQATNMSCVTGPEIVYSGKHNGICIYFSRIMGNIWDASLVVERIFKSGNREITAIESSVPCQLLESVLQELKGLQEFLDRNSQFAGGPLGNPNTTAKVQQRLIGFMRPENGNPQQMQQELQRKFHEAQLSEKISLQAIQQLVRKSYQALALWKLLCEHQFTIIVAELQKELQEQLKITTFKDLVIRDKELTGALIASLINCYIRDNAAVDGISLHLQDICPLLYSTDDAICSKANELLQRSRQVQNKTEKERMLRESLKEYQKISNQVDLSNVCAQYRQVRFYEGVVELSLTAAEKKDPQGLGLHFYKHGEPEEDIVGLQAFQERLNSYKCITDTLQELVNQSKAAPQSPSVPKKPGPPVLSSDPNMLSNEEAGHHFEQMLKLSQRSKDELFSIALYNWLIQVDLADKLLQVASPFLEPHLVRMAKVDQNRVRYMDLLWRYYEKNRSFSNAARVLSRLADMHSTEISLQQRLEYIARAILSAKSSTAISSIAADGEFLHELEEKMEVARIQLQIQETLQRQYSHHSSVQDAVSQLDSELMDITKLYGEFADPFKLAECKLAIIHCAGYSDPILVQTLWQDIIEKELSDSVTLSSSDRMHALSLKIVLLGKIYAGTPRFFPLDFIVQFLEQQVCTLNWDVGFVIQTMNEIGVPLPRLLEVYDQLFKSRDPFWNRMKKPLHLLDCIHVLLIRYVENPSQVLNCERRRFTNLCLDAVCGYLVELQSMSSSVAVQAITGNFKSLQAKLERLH
# T4: Nup88 (human) (UniProt Q99567)
# T4 sequence: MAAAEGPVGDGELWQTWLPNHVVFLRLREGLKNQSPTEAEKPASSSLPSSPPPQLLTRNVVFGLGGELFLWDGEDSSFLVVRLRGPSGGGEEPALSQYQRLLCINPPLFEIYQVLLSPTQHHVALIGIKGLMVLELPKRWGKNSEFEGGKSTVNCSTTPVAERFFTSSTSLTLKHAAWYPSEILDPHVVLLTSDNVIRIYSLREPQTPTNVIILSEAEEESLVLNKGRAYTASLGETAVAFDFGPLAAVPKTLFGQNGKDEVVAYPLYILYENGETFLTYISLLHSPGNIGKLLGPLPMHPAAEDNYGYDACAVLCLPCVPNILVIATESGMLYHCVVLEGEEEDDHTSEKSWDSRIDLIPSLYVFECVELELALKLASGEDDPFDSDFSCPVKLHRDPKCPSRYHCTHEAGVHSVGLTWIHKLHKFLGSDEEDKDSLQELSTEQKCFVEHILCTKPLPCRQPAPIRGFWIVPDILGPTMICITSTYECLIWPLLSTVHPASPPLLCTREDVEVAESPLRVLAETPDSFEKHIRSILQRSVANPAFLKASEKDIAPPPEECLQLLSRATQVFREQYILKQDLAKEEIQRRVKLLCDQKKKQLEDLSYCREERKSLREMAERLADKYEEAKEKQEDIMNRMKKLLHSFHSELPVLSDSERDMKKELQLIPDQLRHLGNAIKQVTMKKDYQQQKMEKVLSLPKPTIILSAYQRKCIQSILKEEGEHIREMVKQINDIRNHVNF
# B1: NPHP9 (NEK8) (protein, UniProt Q86SG6 1-692)
# chain: MEKYERIRVVGRGAFGIVHLCLRKADQKLVIIKQIPVEQMTKEERQAAQNECQVLKLLNHPNVIEYYENFLEDKALMIAMEYAPGGTLAEFIQKRCNSLLEEETILHFFVQILLALHHVHTHLILHRDLKTQNILLDKHRMVVKIGDFGISKILSSKSKAYTVVGTPCYISPELCEGKPYNQKSDIWALGCVLYELASLKRAFEAANLPALVLKIMSGTFAPISDRYSPELRQLVLSLLSLEPAQRPPLSHIMAQPLCIRALLNLHTDVGSVRMRRAEKSVAPSNTGSRTTSVRCRGIPRGPVRPAIPPPLSSVYAWGGGLGTPLRLPMLNTEVVQVAAGRTQKAGVTRSGRLILWEAPPLGAGGGSLLPGAVEQPQPQFISRFLEGQSGVTIKHVACGDFFTACLTDRGIIMTFGSGSNGCLGHGSLTDISQPTIVEALLGYEMVQVACGASHVLALSTERELFAWGRGDSGRLGLGTRESHSCPQQVPMPPGQEAQRVVCGIDSSMILTVPGQALACGSNRFNKLGLDHLSLGEEPVPHQQVEEALSFTLLGSAPLDQEPLLSIDLGTAHSAAVTASGDCYTFGSNQHGQLGTNTRRGSRAPCKVQGLEGIKMAMVACGDAFTVAIGAESEVYSWGKGARGRLGRRDEDAGLPRPVQLDETHPYTVTSVSCCHGNTLLAVRSVTDEPVPP
# B2: NPHP5 (IQCB1) (protein, UniProt Q8BP00 1-598)
# chain: MKPAGTDPRILSLAAEVAKSPEQNVPVILLKLKEIINNTPLGSSELKKVKQDIYCYDLIQYCLLVLSQDSSRIQGGWSTISQLTQILSHCCVGLEPGEDGEEFYKELLPSAAENFLILGRRLQTCFINATKGEEQDKLLHFFQIVTDSLFWLLGGHVQLIQNVLQSDHFLHLLQTDNVQIGASVMTLLQNILQINSGNLLKIEGKALHSILDEILFKLLSTPSPVIRSTATKLLLVLAESHQEILILLRLSACYKGLRSLLNKQETLTEFSRELRQLVDLLTPKIHQEVEEQKLHKAACLIQAYWKGFQTRKRLKKLPSAVIALQRSFRSKRTKMMLELNRQKEEEDLRLKLQLQRQRAMRLSRESRLNMLEIIHPGQVEKYNREMEEKSALTIQKHWRGYRERKNFRQQRPSLTEYKAAVTLQRAVLKFLAKCRKKKKLFASWHGLQELTDARRVELKQQVDDYVKRHPCSQMSEAASRELHAQAQERLQHYFMGRAIEERAQQHREALMAQISTNIEQLMKAPSLKEAEGKEPEQFLSRSRPVAAKAKQAHLTTLKHIQAPWWKKLGEEPGDEVDVPKDELSIDLGMLFIGGTKPP
# Key:
# Experiment in all cases: two-hybrid; directed yeast two-hybrid by mating: AH109 with pGBKT7 (BD, bait) fusions x Y187 with pACT2 (AD, prey) fusions; growth on -leu,-trp,-his plates scored as strong, medium or weak; each mating repeated at least three times
# [1] = biological target: NPHP3 (human) (UniProt Q7Z494)
# [2] = biological target: T1, Nup133 (human)
# [3] = biological target: T2, Nup43 (human)
# [4] = biological target: T3, Nup155 (human)
# [5] = biological target: T4, Nup88 (human)
Molecule,binding [1],binding [2],binding [3],binding [4],binding [5]
NPHP3 (from UniProt Q7Z494 1-1330),binds,–,–,–,–
B1,–,binds weakly,binds weakly,binds,–
B2,–,binds,–,binds,binds
